# Measured values published in PubChem BioAssay AID1865 (National Center for Advancing Translational Sciences (NCATS), 2009).
# Among all 280,000 compounds or so, about 540 (0.19%) were called active. The shares of active, inactive and inconclusive entries below differ from those in the screen. Calls come from the whole dose curve; as a rule, active = well fitted activation curve with a large enough effect; inconclusive = small, poorly fitted or top-dose-only effect; inactive = flat fitted curve, though single readings scatter. Where the call is inconclusive, the potency comes from a doubtful curve fit.
# Experiment: Quantitative High-Throughput Screen for Regulators of Epigenetic Control; note: nearly all actives have a fitted effect of over 60% in size; for GFP activation: % of control where 0% means no effect
# Conditions: murine LDR cells, GFP reporter derepression, 30 h; GFP activation: at 53.9 µM (top of the series)
# How it was run: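 Murine LDR cells bearing a silenced CMV-driven GFP reporter were exposed to compound for 30 h at 37 C. After PBS washes, GFP-positive cells (20-120 um objects) counted by laser-scanning microplate cytometry.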
# Potency is the fitted concentration of half-maximal effect; tags give direction and shape of the fitted curve.
Compound,Potency,GFP activation
CC(=O)Nc1cc(C(F)(F)F)ccc1Oc1cccc(Br)c1,inactive,–
O=C(O)c1cc(-c2ccc(/C=N/Nc3ccc([N+](=O)[O-])cn3)o2)ccc1Cl,"inconclusive: 2.51 µM [activator, partial curve, poor fit]",–
O=C(c1ccco1)N1CCN(CCCCN2C(=O)c3ccccc3C2=O)CC1,"inconclusive: 0.126 µM [activator, partial curve, poor fit]",–
Cc1cc(O)c(-c2cc(C(=O)Nc3cccnc3)[nH]n2)cc1C,inactive,–
COc1cccc(N/C(=N/C(=S)Nc2ccc(C)cc2C)Nc2nc(C)cc(C)n2)c1,"inconclusive: 20 µM [activator, single point]",–
COc1ccc(/C=N/NC(=O)c2c(C)nnn2-c2nonc2N)cc1OC,"inconclusive: 35.5 µM [activator, single point]",–
CCC(C)NC(=O)C1CCN(S(=O)(=O)N2CCCC2)CC1 (configuration not stated),"inconclusive: 35.5 µM [activator, single point]",–
Cc1ccc2nc(SCC(=O)c3c[nH]c4ccccc34)[nH]c2c1,"inconclusive: 28.2 µM [activator, single point]",–
O=C1N=C(N2CCOCC2)S/C1=C/c1cccs1,"inconclusive: 35.5 µM [activator, single point]",–
Cc1ccc2c(c1)C1CN(C)CCC1N2C(=O)c1cccc(S(=O)(=O)N2CC(C)CC(C)C2)c1 (configuration not stated),inactive,–
COc1ccc(NC(=O)c2cnn(-c3ccc(C)cc3)c2-n2cccc2)cc1Cl,inactive,–
COc1cc(/C=C(\C#N)C(=O)Nc2ccc3c(c2)OCCO3)ccc1O,"inconclusive: 35.5 µM [activator, single point]",–
CCCCn1c(/C=N/Nc2nc3ccccc3[nH]2)nc2ccccc21,"inconclusive: 31.6 µM [activator, single point]",–
CCCc1cc(NCc2ccccn2)n2c(nc3ccccc32)c1C#N,"inconclusive: 31.6 µM [activator, single point]",–
COC(=O)C(C)Sc1ncnc2c1nnn2-c1ccc(F)cc1 (configuration not stated),"inconclusive: 35.5 µM [activator, single point]",–
COC(=O)c1cc2oc3ccccc3c2n1CC(=O)Nc1ccc(OC)c(OC)c1OC,"inconclusive: 35.5 µM [activator, single point]",–
CC(=O)Nc1cccc(NC(=O)c2cc(-c3cccnc3)nc3ccc(Br)cc23)c1,inactive,–
COc1ccc(C(CCNCc2ccc(OC(C)C)cc2)C(C)C)cc1 (configuration not stated),"inconclusive: 17.8 µM [activator, single point]",–
CC(C)N1C/C(=C/c2ccsc2)C(=O)/C(=C/c2ccsc2)C1,"inconclusive: 31.6 µM [activator, single point]",–
Cc1ccc(Cl)cc1N1CCN(C(=O)CSc2nnc3n2C(C)(C)Cc2ccccc2-3)CC1,inactive,–
O=C(Nn1cnnc1)c1cccc(S(=O)(=O)N2CCOCC2)c1,inactive,–
CCC(CO)[n+]1c(C)cc(/C=C2\Sc3ccccc3N2Cc2ccccc2)cc1C (configuration not stated),"inconclusive: 35.5 µM [activator, single point]",–
COc1ccc(OC)c(Nc2nc(-c3ccccc3O)nc3ccccc23)c1,"inconclusive: 35.5 µM [activator, single point]",–

Compound,Potency,GFP activation
O=C(CN1CCOCC1)Nc1nc2cc([N+](=O)[O-])ccc2s1,"inconclusive: 15.8 µM [activator, single point]",–
CC(C)C(=O)NC(c1ccco1)c1ccc2cccnc2c1O (configuration not stated),active: 3.55 µM,–
CCN(Cc1ccccc1)C(=O)COC(=O)c1cc(S(=O)(=O)Nc2c(C)n(C)n(-c3ccccc3)c2=O)ccc1C,inactive,–
CC(C)(C)C1CCC2(CC1)Nc1cccc3cccc(c13)N2,"inconclusive: 5.62 µM [activator, single point]",–
CCC(=O)NC(c1ccccc1OC)c1ccc2cccnc2c1O (configuration not stated),active: 3.55 µM,–
COc1ccc2nc(SCC(C)=O)c(C#N)cc2c1,"inconclusive: 28.2 µM [activator, single point]",–
CCOc1ccc(NC(=S)Nc2cccc3cnccc23)cc1,inactive,–
O=C(NC(=S)NCCN1CCOCC1)c1ccccc1Br,inactive,–
CCCN1C/C(=C/c2cccc([N+](=O)[O-])c2)C(=O)/C(=C/c2cccc([N+](=O)[O-])c2)C1,"inconclusive: 22.4 µM [activator, single point]",–
CC(CNc1nc2ccccc2c2nc(-c3ccccc3)nn12)c1ccccc1 (configuration not stated),inactive,–
CC1CCCCC1NC(=O)/C(C#N)=C/c1ccc(F)c(F)c1 (configuration not stated),"inconclusive: 22.4 µM [activator, single point]",–
Cc1cc(/C=C2\SC(=S)N(Cc3ccco3)C2=O)c(C)n1-c1ccccc1,"inconclusive: 22.4 µM [activator, single point]",–
Cc1cccnc1Nc1nc(-c2ccccn2)cs1,"inconclusive: 0.501 µM [activator, partial curve, poor fit]",–
NC(=O)CC(NC(=O)Cc1cccc2ccccc12)c1ccc(NCc2cc(F)ccc2F)c([N+](=O)[O-])c1 (configuration not stated),"inconclusive: 35.5 µM [activator, single point]",–
COc1ccccc1Nc1nc2ccc(C)cc2cc1C#N,"inconclusive: 31.6 µM [activator, single point]",–
COC(=O)C1C(O)=C(C(C)=Nc2cccc3ccccc23)C(=O)CC1(C)C (configuration not stated),inactive,–
CC1CCCN(c2nc3ccccc3nc2C(C#N)S(=O)(=O)c2ccccc2)C1 (configuration not stated),"inconclusive: 35.5 µM [activator, single point]",–
C=CS(=O)c1sc(Cl)c(N2CCOCC2)c1[N+](=O)[O-] (configuration not stated),"inconclusive: 5.62 µM [activator, single point]",–
COc1ccc(C2C(C(=O)Nc3ccccc3)=C(C)Nc3nc(-c4ccccc4)nn32)c(OC)c1 (configuration not stated),inactive,–
CC(C)Cn1c(N)c(C(=O)NCC2CCCO2)c2nc3ccccc3nc21 (configuration not stated),"inconclusive: 35.5 µM [activator, single point]",–
C[C@@H]1O[C@H]2C3=C(C(=O)[C@H]4O[C@@H]4[C@H]3O)[C@@H]1[C@@H]1[C@@H](C)OC=C3[C@H](O)[C@H]4O[C@@H]4/C(=N\OCc4ccccc4)[C@]312,"inconclusive: 5.62 µM [activator, single point]",–
COc1ccc(-c2nc3c(-c4ccccc4)cnn3cc2C)cc1F,"inconclusive: 25.1 µM [activator, single point]",–
CCc1nnc(NC(=O)CSc2ccc(-c3nc4ccc(C)cc4[nH]3)cn2)s1,"inconclusive: 3.16 µM [activator, full curve]",–

Compound,Potency,GFP activation
CCc1ccc(/C=C2/Sc3ccccc3N(CC(=O)NCCCOC)C2=O)cc1,"inconclusive: 0.0045 µM [activator, full curve, poor fit]",–
Cc1sc2nc(CN3CCOCC3)[nH]c(=S)c2c1C,"inconclusive: 11.2 µM [activator, partial curve]",–
CCOC(=O)c1ccc(Nc2nnc(C(C)(C)C)c(=O)[nH]2)cc1,"inconclusive: 25.1 µM [activator, single point]",–
CCc1ccc(Nc2nnc(-c3cc4cc(OC)ccc4oc3=O)s2)cc1,active: 15.8 µM,–
Fc1ccccc1/C=N/n1cc(-c2ccccc2)[nH]c1=S,"inconclusive: 25.1 µM [activator, single point]",–
Cc1cc(C)c(-n2nnnc2SCC(=O)c2cc3ccccc3o2)c(C)c1,"inconclusive: 14.1 µM [activator, single point]",–
O=S(=O)(Nc1cc2nc3ccccc3nc2n1Cc1ccccc1)c1ccc(Cl)cc1,"inconclusive: 25.1 µM [activator, single point]",–
COc1ccc2cc(C(=O)Nc3ccc(Cl)cc3)sc(=O)c2c1OC,"inconclusive: 35.5 µM [activator, single point]",–
CC(C)CC(NC(=O)C1CCCCC1)C(=O)Nc1cccc(C(F)(F)F)c1 (configuration not stated),"inconclusive: 35.5 µM [activator, single point]",–
CCCCNc1c2c3c(cccc3n(C)c1=O)C(=O)c1ccccc1-2,"inconclusive: 4.47 µM [activator, single point]",–
Nc1c(C(=O)O)sc2nc(-c3ccccc3)cc(-c3ccc(Cl)cc3)c12,inactive,–
CCOc1ccc(NC(=O)CCn2cccn2)cc1,inactive,–
Cc1nnc(-c2cccc(C(F)(F)F)c2)nc1N1CCOCC1,–,inactive: -1.87% [at 10.1 µM]
CCCC[C@@H]1C[C@H]1[C@@H](NP(=O)(c1ccccc1)c1ccccc1)c1ccccc1OC,"inconclusive: 12.6 µM [activator, single point]",–
CSc1nc(=S)cc(C)[nH]1,inactive,–
CCc1ccc(CN(C(=O)Nc2cccc(Cl)c2)c2ccccn2)cc1,inactive,–
COc1ccccc1CNC(=O)c1ccc(-n2c(C)cc3c2CCCC3)cc1,"inconclusive: 31.6 µM [activator, single point]",–
Cc1cc(C)c(-c2cc([C@H](C)O/N=C3/[C@H]4OC4[C@@H](O)[C@H]4[C@H]3CCn3c(=O)n(-c5ccccc5)c(=O)n34)on2)c(C)c1 (some centres not stated),"inconclusive: 5.62 µM [activator, single point]",–
CCOC(=O)c1ccc(NC(=O)c2nc[nH]c2C(=O)N[C@@H](Cc2ccccc2)C(=O)OC(C)(C)C)cc1,"inconclusive: 15.8 µM [activator, single point]",–
Cc1ccc(N2C(=O)C3C=NNC3C2=O)cc1 (configuration not stated),"inconclusive: 28.2 µM [activator, single point]",–
N/C(=N\c1nc(C(F)(F)F)cc(=O)[nH]1)Nc1ccc(Cl)cc1,"inconclusive: 35.5 µM [activator, single point]",–
